Measurements published in PubChem BioAssay AID588855 (National Center for Advancing Translational Sciences (NCATS), 2011).
Among all 410,000 compounds or so, about 5,000 (1.2%) were called active. Inconclusive results, whose numbers are uncertain, are shown with a selection of clear calls. Calls come from the whole dose curve; as a rule, active = well fitted inhibition curve with a large enough effect; inconclusive = small, poorly fitted or top-dose-only effect; inactive = no such curve, though single readings can be large or run the other way. Potencies of inconclusive entries are doubtful fits and often do not repeat. Numbered stars: 1 amine (or outer) side, 2 acyl side, 3 side chain; on linkers, the order of the positions; unused ones are H or OH. Bridge positions count the residues as written; N and C are the ends. Square brackets hold non-standard residues; d marks the D form. Peptide text beside a SMILES is read from it. ξ: configuration not given here. hSer(Ph(2-I,4-NO2,6-CO)) = O=C([C@H](CCOc1c(I)cc([N+](=O)[O-])cc1C(=O)[*:3])N[*:1])[*:2]; ξD = NC(CC(=O)O)C(=O)O

Assay: qHTS for Inhibitors of TGF-b; note: nearly all actives have a fitted effect of over 65% in size
Conditions: HepG2 CAGA-GFP TGF-b/SMAD3 reporter, GFP fluorescence, 18 h, TGF-beta stimulated, 500 pg/mL final; series mostly up to 46.1 µM; activity, negative = inhibition: at the top concentration
Method in brief: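 Using HEPG2 CAGA-GFP reporter cells at 1000 cells/well, we pinned test compounds, stimulated with recombinant TGF-beta (500 pg/mL final) and measured total well GFP after 18 h.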
% is set by controls: 0 for no effect and ±100 for the full control effect; potency is the fitted concentration of half-maximal effect; tags give direction and shape of the fitted curve.

Compound	Potency	activity, negative = inhibition
Cc1cccc([C@H]2[C@@H]3C=CCC[C@@H]3C(=O)N2Cc2ccccc2)c1	inconclusive: 11.2 µM [inhibitor, partial curve, poor fit]	–
CCc1ccc(-c2nn(CC(=O)NC3CCCCC3)c3c2cnc2ccc(OC)cc23)cc1	–	inactive: -3.27%
CN(Cc1ccc(C(F)(F)F)cc1)C(=O)c1ccc(Oc2ccccc2)cc1	inconclusive: 35.5 µM [inhibitor, single point]	–
CC1(C)CC(=O)C=C(c2ccc(Cl)c(C(F)(F)F)c2)C1	inconclusive: 35.5 µM [inhibitor, single point]	–
CCC(=C/c1sc2ccc3ccccc3c2[n+]1C)/C=C1\Sc2ccc3ccccc3c2N1C	inconclusive: 6.31 µM [inhibitor, single point]	–
CC(NC(=O)c1ccccc1NS(C)(=O)=O)c1ccccc1 (stereo not drawn)	inconclusive: 7.08 µM [inhibitor, partial curve, poor fit]	–
COC(=O)C(Cc1ccccc1)NS(=O)(=O)c1ccc(F)cc1Br (stereo not drawn)	inconclusive: 35.5 µM [inhibitor, single point]	–
CNC(=O)Nc1cccc(-c2cc(-c3c(Cl)cccc3Cl)no2)c1	inconclusive: 15.8 µM [inhibitor, single point]	–
S=C(NCCCc1cnc[nH]1)NCCCN(Cc1ccc(Cl)cc1)c1ncc(Br)cn1	active: 17.8 µM	–
C[C@@H]1NC(=O)c2cc([N+](=O)[O-])cc(I)c2OCC[C@@H](C(=O)NC(CC(=O)O)C(N)=O)NC(=O)[C@H](CC(N)=O)NC1=O (stereo partly drawn) (AN[hSer(Ph(2-I,4-NO2,6-CO))][ξD]-NH2; lactam N-3)	inconclusive: 3.16 µM [inhibitor, single point]	–
O=C(CSc1nnc(COc2ccccc2F)n1-c1ccccc1)NCc1ccco1	inconclusive: 35.5 µM [inhibitor, partial curve, poor fit]	–
COc1ccc(C(=O)Nc2ccc(S(=O)(=O)N3CCCCC3C)cc2)c(OC)c1OC (stereo not drawn)	inconclusive: 10 µM [inhibitor, partial curve]	–
COc1ccc(S(=O)(=O)N2CCN(C(=O)c3cc4c(s3)CCC4)CC2)cc1	–	inactive: -26.1%
CC(C)Cn1c(/C=C/c2ccc(F)cc2)nc2ccccc21	inconclusive: 35.5 µM [inhibitor, single point]	–
O=C(c1cccs1)N1CCCc2cc(NS(=O)(=O)c3ccc(F)cc3)ccc21	inconclusive: 25.1 µM [inhibitor, single point]	–
C=CCn1c(N)c(C(=O)NCC2CCCO2)sc1=S (stereo not drawn)	inconclusive: 25.1 µM [inhibitor, partial curve]	–
COc1ccc(S(=O)(=O)N2CCN(C3Cc4ccccc4C3)CC2)cc1	inconclusive: 35.5 µM [inhibitor, partial curve, poor fit]	–
C[C@@H]1CN([C@H](C)CO)C(=O)CCCn2cc(nn2)CO[C@H]1CN(C)C(=O)Nc1cccc(F)c1	–	inactive: 30.7%
COc1ccccc1NC(=O)COC(=O)CCc1ccc(S(=O)(=O)N2CCOCC2)cc1	–	inactive: 12.1%
CCOc1ccc(NS(=O)(=O)c2ccc(NC(=O)N3CCCC3)cc2)cc1	–	inactive: 2.54%
COc1ccc(-c2nc(CN3CCN(C(=O)c4ccco4)CC3)c(C)o2)c(F)c1	–	inactive: -3.81%

Compound	Potency	activity, negative = inhibition
COc1cccc(-c2nc(CS(=O)CC(=O)NCCc3ccccc3)c(C)o2)c1 (stereo not drawn)	inconclusive: 22.4 µM [inhibitor, partial curve, poor fit]	–
CC1CCN(CCCn2c(=S)[nH]c3c(sc4ccc([N+](=O)[O-])cc43)c2=O)CC1	–	inactive: 0.218%
CC(C)C(=O)Nc1ccc2nc(SCCOc3ccccc3)sc2c1	–	inactive: -1.29%
CC(=O)O[C@@H]1[C@@H](O)[C@@H](O)[C@H](Oc2c(-c3ccc(O)cc3)oc3c(CC=C(C)C)c(O)cc(O)c3c2=O)O[C@H]1C	inconclusive: 35.5 µM [inhibitor, single point]	–
O=c1cc2c(nn1Cc1c(Cl)cccc1Cl)-c1ccccc1CC2	inconclusive: 35.5 µM [inhibitor, single point]	–
Cc1nnc(SCC(=O)N2c3ccccc3C(C)(c3ccc(Cl)cc3)CC2(C)C)s1 (stereo not drawn)	inconclusive: 35.5 µM [inhibitor, single point]	–
O=C(NCCCC1CCCC1)C1CCC(=O)N(Cc2cccc(F)c2)C1 (stereo not drawn)	inconclusive: 10 µM [inhibitor, partial curve]	–
Cc1ccc(NCC(=O)N/N=C/c2cccc(Oc3ccccc3)c2)cc1	inconclusive: 35.5 µM [inhibitor, single point]	–
O=C(CCn1c(=O)c2sccc2n(Cc2cc(=O)n3ccccc3n2)c1=O)NCc1ccco1	inconclusive: 12.6 µM [inhibitor, partial curve, poor fit]	–
CCO[C@@H]1OC(C(=O)N2CCN(Cc3ccccc3)CC2)=C[C@H](c2ccc(C(F)(F)F)cc2)[C@H]1CCCO	active: 12.6 µM	–
Cc1c(Br)cccc1NC(=O)C1(C)CCN1Cc1ccccc1OC(F)F (stereo not drawn)	inconclusive: 22.4 µM [inhibitor, partial curve, poor fit]	–
Cc1nn2c(-c3cccc(NC(=O)c4ccc(Cl)cc4)c3)nnc2c2ccccc12	–	inactive: -18.8%
C=C(C)COc1ccc(-c2n[nH]c(C)c2-c2ccc(OC)c(OC)c2)c(O)c1	inconclusive: 35.5 µM [inhibitor, single point]	–
CCc1ccc(NC(=O)CN(CC(=O)Nc2ccc(CC)cc2)CC(C)O)cc1 (stereo not drawn)	inconclusive: 15.8 µM [inhibitor, single point]	–
O=C1CCN(Cc2ccccc2)S(=O)(=O)c2ccc(C(F)(F)F)cc21	inconclusive: 20 µM [inhibitor, single point]	–
CCN1CCC(N(Cc2ccc3c(c2)OCO3)C(=O)Nc2ccc(Br)c(C)c2)CC1	inconclusive: 35.5 µM [inhibitor, single point]	–
O=c1cc(Nc2ccc3c(c2)OCO3)[nH]c(=O)n1-c1ccc(Br)cc1	–	inactive: -17.1%
CN1/C(=C\C(=O)COC(=O)c2ccc(O)c(O)c2)C(C)(C)c2ccccc21	inconclusive: 3.55 µM [inhibitor, single point]	–
O=C1OC[C@H]2CCCN2C(=O)[C@@H](CC(=O)N(CCO)Cc2ccccc2)C/C=C\C[C@H]1Cc1ccc(F)cc1	inconclusive: 10 µM [inhibitor, partial curve, poor fit]	–
COc1cc(CN2CC(=O)N(c3ccccc3Cl)C2=S)cc(OC)c1OC	–	inactive: 0%
c1ccc2c(c1)nnn2-c1ncnc2sc3c(c12)CCCC3	inconclusive: 12.6 µM [inhibitor, single point]	–

Compound	Potency	activity, negative = inhibition
CCS(=O)(=O)CCSc1nc(-c2ccc(Br)cc2)cc(-c2ccccc2)c1C#N	–	inactive: -16.5%
Cc1cccc(NC(=O)CCn2nc(-c3ccccc3)c3ccccc3c2=O)c1	inconclusive: 15.8 µM [inhibitor, single point]	–
CCC(=O)Nc1cccc(NC(=O)c2ccc3c(c2)OCO3)c1	inconclusive: 2.24 µM [inhibitor, partial curve]	–
NS(=O)(=O)c1ccc(CCNCc2ccccc2OCc2ccc(Cl)cc2)cc1	inconclusive: 35.5 µM [inhibitor, single point]	–
CN(C)c1ncc(S(=O)(=O)c2ccc(Cl)cc2)c(-c2ccccc2)n1	inconclusive: 0.562 µM [inhibitor, partial curve, poor fit]	–
CC1(c2ccccc2)NC(=O)N(CC(=O)Nc2ccc(Cl)c(S(=O)(=O)N3CCCCC3)c2)C1=O (stereo not drawn)	inconclusive: 35.5 µM [inhibitor, single point]	–
Cc1ccc(-c2ccc(=O)n(CC(=O)NCc3ccc(F)cc3)n2)cc1	inconclusive: 17.8 µM [inhibitor, partial curve, poor fit]	–
O=C(Cc1ccsc1)NNC(=O)c1ccc(F)cc1	inconclusive: 14.1 µM [inhibitor, single point]	–
Cc1ccc(-c2nn(-c3ccccc3)c3[nH]c(=O)c(CNCc4ccccc4)cc23)cc1	inconclusive: 25.1 µM [inhibitor, single point]	–
CCOC(=O)c1ccc(NC(=O)CC2NCCNC2=O)cc1 (stereo not drawn)	inactive	–
NS(=O)(=O)c1ccc(CNC(=S)NC2CCCC2)cc1	inconclusive: 22.4 µM [inhibitor, single point]	–
CC(=O)c1cnn(-c2c(Cl)cc(Cl)cc2Cl)c1C	–	inactive: -32.7%
C=CCc1c(C)nc(SC)nc1Nc1ccc(C)cc1	inconclusive: 35.5 µM [inhibitor, partial curve, poor fit]	–
Cc1nn2c3ccccc3nc2c2ccccc12	inconclusive: 35.5 µM [inhibitor, single point]	–
COC(=O)c1c(NC(=O)COc2cc(C)ccc2C(C)C)sc2c1CCC(C)C2 (stereo not drawn)	inconclusive: 3.16 µM [inhibitor, single point]	–
NC(=S)N/N=C/c1ccc(C(F)(F)F)cc1	–	inactive: -29.4%
O=C(CCCc1ccccc1)Nc1ccnn1C1CCN(Cc2ccc(Cl)cc2)CC1	inconclusive: 22.4 µM [inhibitor, single point]	–
C=CCNc1ncnc2c1ncn2[C@H]1CN(Cc2cccs2)C[C@@H](CO)O1	–	inactive: -2.65%
CC1CC(C)CN(S(=O)(=O)c2ccc(C(=O)NCCCn3ccnc3)cc2)C1 (stereo not drawn)	–	inactive: 9.59%
CCCCCN1C(C(=O)c2ccccc2)=C(NC(=O)c2ccccc2Cl)c2ccccc2S1(=O)=O	inconclusive: 35.5 µM [inhibitor, single point]	–
O=[N+]([O-])c1cc(S(=O)(=O)C(F)(F)F)ccc1Sc1nc2ccccc2s1	inconclusive: 12.6 µM [inhibitor, partial curve, poor fit]	–
